# Measured values as given in ChEMBL document CHEMBL4888484, “Replenishing the malaria drug discovery pipeline: Screening and hit evaluation of the MMV Hit Generation Library 1 (HGL1) against asexual blood stage Plasmodium falciparum ,using a nano luciferase reporter read-out” (2022).
# The whole screen tested about 150,000 compounds, of which about 540 (0.36%) showed an effect of 50% or more. The list shows a part of the results.
# System: Plasmodium falciparum
# Assay: Primary screen in NF54 nanoGlo assay, in single point, at 2uM, 72h; a lower Z score goes with more inhibition
# Assay type: functional, Erythrocyte
# Conditions: timepoint 72 hour
Compound,% Inhibition,Z score
O=C(NCC(CO)Cc1ccc(Cl)cc1)C1CCCOC1 (centres undefined),-3%,0.33
C[C@@H](CC(=O)N1CCN(CC(N)=O)C(=O)C1)c1ccc(F)cc1,-10%,1.81
CC1CCCC(NC(=O)CN2CCN(C3CCN(S(C)(=O)=O)CC3)CC2)C1 (centres undefined),-8%,1.58
Cn1c(=O)[nH]cc(CC(=O)NCc2ccc3[nH]c4c(c3c2)CCCC4)c1=O,-1%,0.12
CC(C)c1ocnc1C(=O)N1C[C@H]2CC[C@@H](C1)N(CC(=O)N(C)C)C2=O,9%,-1.25
CCn1nc(CO)c2c1CCN(c1nccc(C3CCCC3)n1)C2,-10%,1.66
COCCN(CC1CCN(Cc2ccccc2OC)CC1)C(=O)c1n[nH]c2c1CCC2,-6%,0.8
O=C(Nc1ccnn1C1CCCC1)[C@@H]1CCCO1,-2%,0.33
CCOc1ccc(-c2c[nH]c([C@H]3CCCN(CC)C3)n2)cc1OCC,-4%,0.53
COC(C)(C)C[C@H](C)NCc1ccc2nonc2c1,-8%,1.52
O=C(NC1CN(C(=O)Nc2cnns2)C1)C1CCC1,-13%,1.41
CC(C)(C#N)C(=O)Nc1cc(S(C)(=O)=O)ccc1F,-12%,1.49
O=C1CCC(=O)N1Cc1nc(C2CCC(F)(F)CC2)cs1,-10%,1.23
CCCCNC(=O)OC[C@H]1CCCCN1,-5%,0.55
Cc1nc2n(c1C)CCN([C@@H](C)C(=O)N1CCCc3ccccc31)C2,-7%,1.29
CC(C)c1cncnc1NC(=O)Cc1ccccc1Cl,-16%,1.84
c1ccc(-c2noc(-c3cncnc3N[C@H]3CCc4ccccc43)n2)cc1,-3%,0.46
O=C(c1cccc2[nH]c(C(F)F)nc12)N1CCCC[C@H]1c1ccco1,-13%,2.14
Cc1nc(C(=O)N2CCn3c(Cl)ccc3[C@@H]2C)c(C)o1,-5%,0.73
CC(C)(C)C(=O)NCCCC(=O)N1CCCCC1,-11%,1.64
COc1c(C)cnc(Cn2cc(Cl)c(=O)[nH]c2=O)c1C,-4%,0.71
Cc1cc(NC(=O)N2C[C@H]3CC[C@@H](C2)[C@H]3O)n(Cc2ccccc2Cl)n1,-9%,1.23

Compound,% Inhibition,Z score
NC(=O)c1cc(F)c(F)cc1NS(=O)(=O)C[C@H]1CCCO1,-11%,1.09
CC(C)(C)OC(=O)N1CC2(CN(Cc3ccccc3)CC(C)(C)O2)C1,-4%,0.52
Cn1cccc1[C@@H](O)CCNC(=O)Cc1ccsc1,-5%,0.57
COc1cccc(N2CCN(C(=O)c3cccc(-c4nc(C)c(C)s4)c3)CC2)c1,-17%,2.19
COC(C)(C)c1noc(C2CC3CCC2C3)n1 (centres undefined),-5%,0.66
CC(=O)/N=C1\OC2C(CS(=O)(=O)C2(Br)Br)N1C(C)=O (centres undefined),-36%,4.17
CC1CC(c2cccnc2)N(C(=O)CCC(=O)OC(C)(C)C)C1 (centres undefined),-12%,1.69
CCOC(=O)[C@H]1CCCN(C(=O)c2nc(C)ns2)C1,-19%,2.9
O=C(CC1CCCC1)N1C[C@H]2CC[C@@H](C1)N(Cc1ccccc1)C2=O,-15%,1.87
CN(c1ccc2cccc(Br)c2n1)C1CCC(O)CC1 (centres undefined),10%,-1.23
CC(=Cc1ccccc1OC(F)F)CN1CCN(C2CC2)CC1,-4%,0.72
Cc1ccc(-c2cn3cc(C(=O)N[C@@H](C)c4cccnc4)ccc3n2)cc1,-1%,0.17
Cc1ccc(C)c(NC(=O)N(C)CCc2noc(C(=O)NCc3ccc(Cl)cc3)n2)c1,-14%,1.27
Cc1cccc2sc(N3CC[C@H](c4cc(=O)[nH]c(=O)[nH]4)C3)nc12,4%,-0.6
CC(C)C1OCCCC1CNC(=O)NCc1nc(C(F)(F)F)cs1 (centres undefined),0%,-0.04
CC(C)(C)NC(=O)N1CCC[C@@H]1CO,-9%,1.11
COc1ccnc(N2CC(O)(c3cnnn3C)C2)n1,-19%,3.56
CN(C)c1ccc(C(=O)N2CC[C@](C)(O)[C@H](O)C2)cn1,0%,0.04
Cn1nnc2c(N[C@@H]3CCc4cc(Br)ccc43)ncnc21,0%,-0.06
Cc1noc(CNC(=O)c2cc3n(n2)CCCO3)n1,-11%,1.73
CCN(CCO)c1nc(N2CCCCC2)c2cnn(C)c2n1,10%,-1.23
COC(=O)c1cn(NC(=O)c2cc(C3CC3)on2)cc2c(O)nnc1-2,-9%,1.2

Compound,% Inhibition,Z score
C/C=C/CN1CCCn2nc(CN(C)Cc3nc4cccc(C)c4[nH]3)cc2C1,10%,-1.34
CCCC(=O)O[C@@H]1C[C@@H](C)N(C(=O)c2ccccc2)c2ccc(C)cc21,0%,-0.06
O=C(NCC[C@@H]1CCCC[C@@H]1O)c1cnc2n1CCC2,5%,-0.77
CCn1c([C@H]2CCCN(S(=O)(=O)c3ccc(C)c(C)c3)C2)n[nH]c1=O,-6%,0.98
O=C1CCN(C(=O)c2ccc(-c3ncon3)cc2)CCN1,0%,-0.05
CCN(CC)C(=O)CN(C)c1nc(N)nc(C(C)(C)C)n1,-19%,2.41
CCCC(CCc1ccccc1)NC(=O)C1CNCCO1 (centres undefined),-6%,0.79
Fc1ccc([C@@]2(c3noc(-c4ccc[nH]4)n3)CCOC2)cc1,-8%,1.66
CCN1CCC[C@H](CN(C)c2ccc(C(C)C)nn2)C1,-4%,0.67
CCc1nc(CCN=C(N)Nc2ccc3c(c2)OCCO3)cs1,-1%,0.07
CN(Cc1ccc(Cl)cc1)[C@H]1CCOC1=O,-9%,1
O=C(NCc1ccccn1)C1(c2ccc3c(c2)OCO3)CCCCC1,-6%,1.01
CCc1ccc(NC(=O)Cn2ccn3nc4c(c3c2=O)CCCCC4)cc1,-16%,2.03
O=C(Nc1cccc(Cl)c1)Nc1c(-c2cccnc2)[nH]c2ccccc12,3%,-0.44
CN(C)[C@@H]1C[C@@H](C(=O)O)N(C(=O)CCCc2ccccc2)C1,-4%,0.43
Cc1cccnc1-c1cccc(-c2ccn(CCN3C[C@H]4CC[C@H]3C4)n2)c1,3%,-0.39
O=C(C1CC1c1ccccc1)N1CCN(c2nc3cccnc3o2)CC1 (centres undefined),-10%,0.98
COCC(=O)N1CC[C@H]2CC(=O)Nc3cccnc3OCC[C@H]2C1,-11%,1.74
C[C@@H]1CN(C(=O)Cc2ccc3c(c2)CCCO3)CC[C@@H]1C(=O)O,5%,-1.03
CCc1nc(CC(=O)Nc2ncn(-c3ccccn3)n2)cs1,-15%,1.5
CN1CCOc2ccc(NC(=O)NCCOCC(F)F)cc21,-9%,0.94
CC(C)CC[C@H](C)NC(=O)Cn1ccnc1,-9%,1.26

Compound,% Inhibition,Z score
COc1ncccc1CNCc1ccc2c(c1)OCCO2,3%,-0.45
C[C@H]1CN(C(=O)c2cc(=O)[nH]c(C3CC3)n2)Cc2ccccc2O1,-11%,1.37
Cc1cccnc1[C@@H](NC(=O)CNC(=O)N(C)C)C1CC1,-2%,0.38
COC[C@H](Cc1ccccc1)N(C)CC(=O)NCc1ccccc1,-13%,1.35
CCn1cc(-c2noc(CNC(C)=O)n2)cn1,-14%,1.74
CCOc1cccnc1C(=O)NCc1nc(-c2ccco2)n[nH]1,-18%,3.41
O=C(C1CC=CC1)N1CC(CC(F)F)C1,0%,0.03
O=C(c1cnc2c(cnn2C2CCCCC2)c1)c1ccccc1O,-4%,0.84
CN(C)c1ccc(NS(=O)(=O)c2c(F)cccc2F)cn1,2%,-0.43
Cc1noc(C)c1NC(=O)C[C@H]1CCCc2ccccc21,0%,-0.06
CCOC(=O)c1coc(N(C)C(=O)Cc2ccc(C)c(C)c2)n1,-8%,1.5
Nc1n[nH]c2ccc(-c3cccc(C(=O)N4C[C@H]5CC=CC[C@H]5C4)c3)cc12,-12%,1.55
COc1cccc(C(=O)Nc2nc(-c3ccc(C)s3)ns2)c1,-3%,0.46
CCN(Cc1noc(C2CCC2)n1)C(=O)Cn1ccnc1,1%,-0.09
Cn1cc(-c2noc(CNC(=O)c3ccco3)n2)cn1,-17%,2.12
Cc1ccc(CN(C[C@H](O)COC(C)C)C(C)C)c(C)c1,5%,-0.81
COc1ccc(OC)c(-c2[nH]c3ccccc3c2[C@@H]2CCC(=O)N2CCCOC(C)C)c1,-16%,1.84
Cc1noc(C)c1C(=O)N1CC[C@H](c2ccsc2)C1,-11%,2.05
CN(C(=O)Cn1ccc2ccccc21)c1ccc(-c2ccccc2)nn1,33%,-3.74
CC(C)NC[C@H](CCO)c1ccccc1,-12%,1.2
O=S(=O)(NCC1CCCCC1)C1CCCCC1,3%,-0.56
